Measurements from patent US20250297021A1 (SHANDONG SIMCERE BIOPHARMACEUTICAL CO NO 1, published 2025).

T1: human BCMA-His protein (human, UniProt Q02223 1-54)
T1 construct: bought; also called human BCMA protein; not shown: His tag
T1 sequence (looked up): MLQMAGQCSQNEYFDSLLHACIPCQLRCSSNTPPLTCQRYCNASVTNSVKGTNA

T2: human BCMA on cells (human, UniProt Q02223 1-184)
T2 construct: whole, on cells; also called H929 cells; U266 cells
T2 sequence (looked up): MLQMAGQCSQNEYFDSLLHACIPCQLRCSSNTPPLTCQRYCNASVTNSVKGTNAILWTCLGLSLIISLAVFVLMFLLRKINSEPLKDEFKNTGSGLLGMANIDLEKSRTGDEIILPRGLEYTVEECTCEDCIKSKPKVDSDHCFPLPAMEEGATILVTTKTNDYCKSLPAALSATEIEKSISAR

B1: BCMA-mAb07 (Fc fusion)
scFv: QVQLQQSGAELAKPGASVKLSCKASGYTFTDYWTHWVKQRPGQGLEWIGYINHGSGYTKYNQKFKDKATLTADKSSSTAYMQVSSLTYEDSAVYYCARLTGSYYFDYWGQGTTLTVSSGGGGSGGGGSGGGGSQIVLTQSPAIMSASPGEKVTMTCSASSSVSYMHWYQQKSGTSPKRWIYDTSKLASGVPPRFSGSGSGTSYSLTISSMEAEDAATYYCQQWSSNPLTFGAGTKLELK[human IgG1 Fc with C220S (EU numbers) not spelt out]
B2: BCMA-mAb05 (Fc fusion)
scFv: QGQMQQSDAELVKPGASVQISCKASGYMFTDHTFHWMRQRPEQGLEWIGYIYPRDDNTKYNEKFKGKATLTADKSSSTAYIHLNSLTSEDSAVYFCARAGYYGSSHAMDYWGQGTSVTVSSGGGGSGGGGSGGGGSDIVMTQSHKFMSTSVGDRVSITCKASQDVSTAVAWYQQKPGQSPRLLIYSASSRYTGVPDRFTGSGSGTDFTFTISSVQTEDLAVYYCQQLYSTPWTFGGGTKLEIK[human IgG1 Fc with C220S (EU numbers) not spelt out]
B3: BCMA-mAb06 (Fc fusion)
scFv: EVKLLQSGGGLVQPGGSLKLSCAASGIDFSRYWMSWVRRAPGKGLEWIGEINPDSSTINYAPSLKDEFIISRDNAKNTLYLQMSKVRSEDTALYYCAIFYYANYYAMDYWGQGTSVTVSSGGGGSGGGGSGGGGSDIVMTQSQKFMSTSVGDRVSVTCKASQNVDTNVAWYQQKPGQSPKALIYSASYRFSGVPDRFTGSGSGTDFTLTISNVQSEDLAEYFCQQYNGYPFTFASGTKLEIK[human IgG1 Fc with C220S (EU numbers) not spelt out]

The binders below were run against T1, human BCMA-His protein (assay: ELISA, human BCMA-His coated; Ab 1 nM).
Protocol: (§1) The specific method was as follows: Human BCMA protein (purchased from Acro, catalog number: BCA-H522y) and monkey BCMA protein (purchased from Acro, catalog number: BCA-C52H7) were diluted with PBS to a final concentration of 1 μg/mL, respectively, and then added to a 96-well ELISA plate at 50 μl/well. The plate was sealed with a plastic film and incubated overnight at 4° C., the plate was washed twice with PBS the next day, and then a blocking solution [PBS+2% (w/v) BSA] was added for blocking at room temperature for 2 h. The blocking solution was discarded, the plate was washed 3 times with PBS, and 100 nM BCMA human-mouse chimeric antibody diluted gradiently or control antibody was added at 50 μl/well. After incubation at 37° C. for 2 h, the plate was washed 3 times with PBS. HRP (horseradish peroxidase)-labeled secondary antibody (purchased from Merck, catalog number: AP113P) was added, and incubated at 37° C. for 1 h, and the plate was washed 5 times with PBS. TMB substrate was added at 50 μl/well, and incubated at room temperature for 10 min, then a stop solution (1.0 M HCl) was added at 50 μl/well. The OD450 nm values were read by an ELISA microplate reader (Multimode Plate Reader, EnSight, purchased from Perkin Elmer). The results are shown in Table 7, Table 8 and FIGS. 7A-7B and FIG. 8A-8B. All chimeric antibodies have good binding activity with human BCMA protein; except that BCMA-mAb06 has no cross-binding activity with monkey BCMA protein and BCMA-mAb07 has weak binding to monkey BCMA protein, other chimeric antibodies have good binding activity with monkey BCMA protein. The IgG subtype control is human IgG1.
B1 gave an OD450 of 2.29. With B2 the OD450 was 2.25. For B3, the OD450 was 2.26.

What follows are binders tested against T2, human BCMA on cells (assay: cell ELISA, Flp-inCHO-human BCMA cells; Ab 3.70 nM).
Excerpt: (§2) The specific method was as follows: The required cells were scale-up cultured in a T-75 cell culture flask to the logarithmic growth phase, the medium was aspirated, the cells were washed twice with a PBS buffer, and then digested with trypsin. Then the digestion was terminated with a complete medium, and the cells were pipetted to obtain a single cell suspension. After the cells were counted and centrifuged, the cell precipitate was resuspended to 4×10⁵ cells per milliliter with a complete medium, and the suspension was added to a 96-well flat-bottomed cell culture plate at 100 μl/well, and cultured overnight in a 37° C., 5% carbon dioxide incubator. On the next day, the medium in the 96-well plate was discarded, the cells were washed once with PBS, and then fixed at room temperature for 0.5 h with an immunostaining fixative (purchased from Beyotime, catalog number: P0098-500 ml) at 50 μl/well. A blocking solution [PBS+5% (w/v) skim milk] was added for blocking at room temperature for 2 h. The blocking solution was discarded, the plate was washed 3 times with PBS, and 100 nM BCMA human-mouse chimeric antibody diluted gradiently or control antibody was added at 50 μl/well. After incubation at 37° C. for 2 h, the plate was washed 3 times with PBS. HRP (horseradish peroxidase)-labeled secondary antibody (purchased from Merck, catalog number: AP113P) was added, and incubated at 37° C. for 1 h, and the plate was washed 5 times with PBS. TMB substrate was added at 50 μl/well, and incubated at room temperature for 10 min, then a stop solution (1.0 M HCl) was added at 50 μl/well. The OD450 nm values were read by an ELISA microplate reader (Multimode Plate Reader, EnSight, purchased from Perkin Elmer). The chimeric antibodies bind well to Flp-inCHO-human BCMA cells. The IgG subtype control is human IgG1.
For B1, the OD450 was 0.73. In the case of B2, the OD450 is reported as 1.01. In the case of B3, the OD450 is reported as 0.96.

What follows are binders tested against T1, human BCMA-His protein (assay: ELISA, human BCMA-His coated; Ab 0.01 nM).
Protocol: as §1
Work on B1 yielded an OD450 of 0.43. Work on B2 yielded an OD450 of 0.31. B3 showed an OD450 of 0.4.

These binders were tested against T2, human BCMA on cells (assay: FACS, U266 cells).
Protocol: (§3) The desired cells were scale-up cultured in T-75 cell culture flasks to the logarithmic growth phase, and the cells were pipetted into a single cell suspension. After the cells were counted, the cells were centrifuged and the cell pellet was resuspended in FACS buffer (PBS+2% fetal calf serum) to 2×10⁶ cells per ml, and the suspension was added to the 96-well FACS reaction plate at 50 μl per well, then the sample to be tested of the chimeric antibody was added at 50 μl per well and the mixture was incubated at 4° C. for 1 h. The obtained mixture was centrifuged and washed 3 times with a PBS buffer. […] The obtained mixture was centrifuged and washed 3 times with a PBS buffer. 100 μl of the mixture was taken for detection and result analysis by FACS (FACS Canto™, purchased from BD Company). Data analysis was performed by software (FlowJo) to obtain the mean fluorescence intensity (MFI) of the cells. Then, a software (GraphPad Prism8) was used for analysis, data fitting and EC50 calculation. The results are shown in Table 10 and FIGS. 10A-10B, FIGS. 11A-11B, and FIGS. 12A-12B. All seven chimeric antibodies bind to three types of BCMA-expressing endogenous cells.
With B1 the EC50 was 11.3 nM and the “Maximum mean fluorescence intensity” value was 4180. In the case of B2, the EC50 is reported as 16 nM and the “Maximum mean fluorescence intensity” value is reported as 3760. With B3 the EC50 was 3.23 nM and the “Maximum mean fluorescence intensity” value was 4550.

These binders were tested against T1, human BCMA-His protein (assay: ELISA, human BCMA-His coated; Ab 10 nM).
Protocol: as §1
For B1, the OD450 was 2.21. B2 was tested, and the OD450 was 2.73. B3 was tested, and the OD450 was 2.52.

Each binder was assayed against T1, human BCMA-His protein (assay: ELISA, human BCMA-His coated; Ab 0.001 nM).
Protocol: as §1
Binder B1 has an OD450 of 0.14. With B2 the OD450 was 0.12. Binder B3 has an OD450 of 0.12.

What follows are binders tested against T2, human BCMA on cells (assay: FACS, H929 cells).
Protocol: as §3
With B1 the EC50 was 7.45 nM and the “Maximum mean fluorescence intensity” value was 12200. B2 was tested, and the EC50 was 12.4 nM and the “Maximum mean fluorescence intensity” value was 11000. For B3, the EC50 was 3.39 nM and the “Maximum mean fluorescence intensity” value was 11700.

Each binder was assayed against T2, human BCMA on cells (assay: cell ELISA, Flp-inCHO-human BCMA cells; Ab 100.00 nM).
Excerpt: as §2
With B1 the OD450 was 0.91. B2 gave an OD450 of 1.31. B3 was tested, and the OD450 was 1.21.

The binders below were run against T1, human BCMA-His protein (assay: ELISA, human BCMA-His coated; Ab 0.1 nM).
Protocol: as §1
For B1, the OD450 was 1.46. Work on B2 yielded an OD450 of 1.2. B3 gave an OD450 of 1.29.

Each binder was assayed against T2, human BCMA on cells (assay: cell ELISA, Flp-inCHO-human BCMA cells; Ab 11.11 nM).
Excerpt: as §2
For B1, the OD450 was 1.01. Binder B2 has an OD450 of 1.17. B3 was tested, and the OD450 was 1.28.
